{
  "source": "paper PMC4336329",
  "about": "(PLoS ONE, 2015)",
  "note": "Out of some 310,000 compounds screened, about 14,000 (4.5%) showed an effect of 50% or more. Effects have a minus sign here. The list shows a part of the results.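 Note: peak tail current of the secondary pulse compared with the same well before compound.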",
  "data": [
    {"molecular_target": "human ether-à-go-go-related gene (hERG) potassium channel (human, UniProt Q12809)", "sequence (Q12809 whole entry, looked up)": "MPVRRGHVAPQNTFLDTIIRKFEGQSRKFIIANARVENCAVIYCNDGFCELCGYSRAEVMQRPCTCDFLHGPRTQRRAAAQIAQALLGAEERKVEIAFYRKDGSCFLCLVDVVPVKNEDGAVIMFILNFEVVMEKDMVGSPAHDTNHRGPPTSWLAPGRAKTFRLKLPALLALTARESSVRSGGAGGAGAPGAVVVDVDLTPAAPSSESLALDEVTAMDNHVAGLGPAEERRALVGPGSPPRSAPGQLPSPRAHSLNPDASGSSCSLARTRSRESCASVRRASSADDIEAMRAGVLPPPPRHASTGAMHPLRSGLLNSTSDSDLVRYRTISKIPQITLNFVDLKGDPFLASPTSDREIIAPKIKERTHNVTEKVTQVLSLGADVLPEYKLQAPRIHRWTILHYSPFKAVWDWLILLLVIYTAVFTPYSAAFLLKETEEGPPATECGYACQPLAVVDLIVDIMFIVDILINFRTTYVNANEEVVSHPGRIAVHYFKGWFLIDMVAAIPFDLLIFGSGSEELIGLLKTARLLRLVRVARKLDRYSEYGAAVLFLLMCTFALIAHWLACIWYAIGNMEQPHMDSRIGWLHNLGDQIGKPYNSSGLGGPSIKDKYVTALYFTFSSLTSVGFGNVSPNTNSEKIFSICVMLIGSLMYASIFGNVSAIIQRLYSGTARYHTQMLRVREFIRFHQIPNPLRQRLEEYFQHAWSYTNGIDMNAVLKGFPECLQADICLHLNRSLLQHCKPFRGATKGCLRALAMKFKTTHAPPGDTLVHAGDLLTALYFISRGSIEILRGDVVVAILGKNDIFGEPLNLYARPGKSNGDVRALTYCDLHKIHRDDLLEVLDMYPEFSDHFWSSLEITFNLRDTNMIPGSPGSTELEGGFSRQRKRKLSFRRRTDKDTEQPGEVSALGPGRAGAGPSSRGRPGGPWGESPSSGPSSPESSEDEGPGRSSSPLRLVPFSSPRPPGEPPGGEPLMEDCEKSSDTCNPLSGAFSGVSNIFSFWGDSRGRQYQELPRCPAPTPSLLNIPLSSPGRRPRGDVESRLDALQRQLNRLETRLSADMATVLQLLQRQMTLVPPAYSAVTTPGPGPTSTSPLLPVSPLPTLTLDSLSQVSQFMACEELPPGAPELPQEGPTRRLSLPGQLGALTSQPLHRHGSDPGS", "test": "primary screen, population patch clamp on CHO cells stably expressing hERG", "units": {"hERG current change (%, negative = inhibition) at 10uM": "%"}, "values": [
      {"smiles": "S=C(NCCc1ccccc1)Nc1ccc(Cl)cc1", "hERG current change (%, negative = inhibition) at 10uM": 7.16},
      {"smiles": "N#Cc1nc(Cl)c(Cl)c(NN)c1Cl", "hERG current change (%, negative = inhibition) at 10uM": 15.2},
      {"smiles": "Cc1ccc(-c2csc3ncnc(SCC(=O)c4ccc5c(c4)OCCO5)c23)cc1", "hERG current change (%, negative = inhibition) at 10uM": 8.67},
      {"smiles": "O=C(CN1C(=O)NC2(CCCc3ccccc32)C1=O)Nc1cc(F)ccc1F", "note": "(centres unmarked)", "hERG current change (%, negative = inhibition) at 10uM": 5.45},
      {"smiles": "CCCCCNc1c(C(=O)OCC)c(=O)[nH]c2ccccc12", "hERG current change (%, negative = inhibition) at 10uM": -11.7},
      {"smiles": "C=CCOc1ccc(/C=C2\\SC(=S)N(CCC(=O)O)C2=O)cc1", "hERG current change (%, negative = inhibition) at 10uM": 14},
      {"smiles": "COc1ccc(C(c2sc3nc(C)nn3c2O)N2CCC(C(N)=O)CC2)cc1OC", "note": "(centres unmarked)", "hERG current change (%, negative = inhibition) at 10uM": -6.51},
      {"smiles": "CC(=O)N1CN(C(C)=O)CN(C(C)=O)C1", "hERG current change (%, negative = inhibition) at 10uM": 3.72},
      {"smiles": "Cc1ccc(NC(=S)N=Nc2c(O)[nH]c3ccccc23)cc1", "hERG current change (%, negative = inhibition) at 10uM": 9.41},
      {"smiles": "S=C(NCc1ccccc1)Nc1ccc2cn[nH]c2c1", "hERG current change (%, negative = inhibition) at 10uM": -7.58},
      {"smiles": "CCOC(=O)C1(Cc2ccccc2)CCCN(Cc2ccncc2)C1", "note": "(centres unmarked)", "hERG current change (%, negative = inhibition) at 10uM": -17.4},
      {"smiles": "CCc1cccc(NC(=O)Cc2ccc(OC)c(OC)c2)c1", "hERG current change (%, negative = inhibition) at 10uM": 5.57},
      {"smiles": "CCC1CCCCN1C(=O)CSc1nnc(-c2ccco2)o1", "note": "(centres unmarked)", "hERG current change (%, negative = inhibition) at 10uM": 4.11},
      {"smiles": "COc1cc(C(=O)NC2CCCc3c2cnn3-c2ccccc2F)cc(OC)c1OC", "note": "(centres unmarked)", "hERG current change (%, negative = inhibition) at 10uM": 11.4},
      {"smiles": "Cc1nn2c3c(cnc2c1-c1ccccc1)C(=O)CCC3", "hERG current change (%, negative = inhibition) at 10uM": 11.5},
      {"smiles": "CCOC(=O)c1ccc(N2CSC3=C(C#N)C(c4ccc(OC)cc4OC)CC(=O)N3C2)cc1", "note": "(centres unmarked)", "hERG current change (%, negative = inhibition) at 10uM": 6.82},
      {"smiles": "c1ccc(Cc2nnc3sc(Nc4ccccc4)nn23)cc1", "hERG current change (%, negative = inhibition) at 10uM": -1.51},
      {"smiles": "COc1ccc(/C=N/n2c(=O)[nH]c3c([nH]c4ccc(Br)cc43)c2=O)cc1CN1CCOCC1", "hERG current change (%, negative = inhibition) at 10uM": 5.45},
      {"smiles": "Cc1ccc2cc(CN(C(=O)c3ccco3)c3cccc(C)c3C)c(=O)[nH]c2c1", "hERG current change (%, negative = inhibition) at 10uM": 2.34},
      {"smiles": "O=C(Nc1nc2ccccc2s1)c1ccccc1[N+](=O)[O-]", "hERG current change (%, negative = inhibition) at 10uM": 8.98},
      {"smiles": "COc1ccc(CCNC(=O)C2(C)CCC(=O)N2Cc2ccc(F)cc2Cl)cc1OC", "note": "(centres unmarked)", "hERG current change (%, negative = inhibition) at 10uM": 12.1},
      {"smiles": "Cc1cc(-c2nn(-c3ccccc3F)cc2CN2CCN(c3ccncc3)CC2)c(C)s1", "hERG current change (%, negative = inhibition) at 10uM": -94.3},
      {"smiles": "CCOC(=O)Nc1ccc2c(c1)N(C(=O)C(C)N1CCCC1)c1ccccc1CC2.Cl", "note": "(centres unmarked)", "hERG current change (%, negative = inhibition) at 10uM": -60.2},
      {"smiles": "CC1CC(=O)Nc2ccccc2N1C(=O)Nc1ccc(F)cc1F", "note": "(centres unmarked)", "hERG current change (%, negative = inhibition) at 10uM": 9.36},
      {"smiles": "NC(=O)c1ccc(NC(=O)COC(=O)C2CC(=O)N(Cc3ccccc3)C2)cc1", "note": "(centres unmarked)", "hERG current change (%, negative = inhibition) at 10uM": -19},
      {"smiles": "CCOC(=O)N1CCN(C(=O)CN2C(=O)NC(c3ccccc3)(c3ccccc3)C2=O)CC1", "hERG current change (%, negative = inhibition) at 10uM": -16.8},
      {"smiles": "CSc1ccccc1C(=O)N1CCC2(CC1)CC(=O)c1ccccc1O2", "hERG current change (%, negative = inhibition) at 10uM": -61},
      {"smiles": "C/C(=N\\NC(=O)c1ccoc1C)c1ccc(Br)s1", "hERG current change (%, negative = inhibition) at 10uM": 3.5},
      {"smiles": "c1ccc(C2Oc3ccccc3C3CC(c4cccs4)=NN32)cc1", "note": "(centres unmarked)", "hERG current change (%, negative = inhibition) at 10uM": 3.71},
      {"smiles": "O=C(O)c1cccc(COc2ccc(CO)cc2Cl)c1", "hERG current change (%, negative = inhibition) at 10uM": -2.55},
      {"smiles": "O=C(O)CC(Cc1ccc(Cl)cc1)C(=O)Nc1cc(Cl)ccc1Cl", "note": "(centres unmarked)", "hERG current change (%, negative = inhibition) at 10uM": 21.5},
      {"smiles": "CCNC(=S)N(Cc1cc2cc(C)c(C)cc2[nH]c1=O)C1CCCC1", "hERG current change (%, negative = inhibition) at 10uM": -5.42},
      {"smiles": "O=C(/C=C/c1ccc(Cl)cc1)NC(=S)Nc1ccc(N2CCOCC2)c(Cl)c1", "hERG current change (%, negative = inhibition) at 10uM": -11.7},
      {"smiles": "CN(C(=O)c1ccc(OC2CCN(C(=O)c3cccnc3)CC2)cc1)C1CCCCC1", "hERG current change (%, negative = inhibition) at 10uM": -15.4},
      {"smiles": "O=C(C1CCN(S(=O)(=O)c2ccc(F)cc2)CC1)N1CCCC(C(F)(F)F)C1", "note": "(centres unmarked)", "hERG current change (%, negative = inhibition) at 10uM": -17.5},
      {"smiles": "COc1ccc(NC(=O)C2CC(=O)N(c3cccc(C)c3C)C2)cc1", "note": "(centres unmarked)", "hERG current change (%, negative = inhibition) at 10uM": -0.228},
      {"smiles": "O=C(COC(=O)c1ccc(F)cc1F)NCCC1=CCCCC1", "hERG current change (%, negative = inhibition) at 10uM": 10.6},
      {"smiles": "CNC(=O)c1cn(-c2ccccc2)c(=O)c2ccccc12", "hERG current change (%, negative = inhibition) at 10uM": -1.63},
      {"smiles": "CCOC(=O)c1nnc(-c2ccccc2)nc1Sc1ccccc1Cl", "hERG current change (%, negative = inhibition) at 10uM": 8.66},
      {"smiles": "CC(=O)N1CCc2cc(NS(=O)(=O)c3cccs3)ccc21", "hERG current change (%, negative = inhibition) at 10uM": -2.13},
      {"smiles": "COc1ccc(-c2cc3nc(C)cc(N)n3n2)cc1", "hERG current change (%, negative = inhibition) at 10uM": 3.53},
      {"smiles": "CCc1ccc(NC(=O)COc2cccc(-n3cnnn3)c2)cc1", "hERG current change (%, negative = inhibition) at 10uM": -68},
      {"smiles": "O=C(Cc1c(F)cccc1Cl)NNC(=S)Nc1ccc(S(=O)(=O)Nc2ncccn2)cc1", "hERG current change (%, negative = inhibition) at 10uM": 19.4},
      {"smiles": "S=C(NCc1ccccc1Cl)NC1CCCC1", "hERG current change (%, negative = inhibition) at 10uM": 7.24}
    ]}
  ]
}
